Measured values reported in the BET-seq Pho4 binding data (Le et al. 2018).
The other results are listed elsewhere or left out. These are noisy estimates, calculated here from bound and input reads.

biological target: T1, Pho4 (S. cerevisiae) (UniProt P07270); test: relative binding free energy (BET-seq); higher = weaker binding; details: reference: library average
T1 sequence: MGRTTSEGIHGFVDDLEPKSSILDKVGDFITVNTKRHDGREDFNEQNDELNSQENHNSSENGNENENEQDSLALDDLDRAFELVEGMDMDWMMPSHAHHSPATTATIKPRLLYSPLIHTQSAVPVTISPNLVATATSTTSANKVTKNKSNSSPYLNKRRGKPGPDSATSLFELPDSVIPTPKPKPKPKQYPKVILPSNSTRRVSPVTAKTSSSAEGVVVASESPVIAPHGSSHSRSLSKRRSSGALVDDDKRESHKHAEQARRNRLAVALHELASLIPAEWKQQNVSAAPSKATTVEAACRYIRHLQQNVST

Sequence | relative binding free energy
ATATGCACGTGTAGTG | 0 kcal/mol
ATATGCACGTGCTTGG | -0.19 kcal/mol
TGTTACACGTGGGCAT | 0.03 kcal/mol
AAGATCACGTGTGTGT | 0.16 kcal/mol
ATTGTCACGTGTTAGT | 0.06 kcal/mol
CGTGACACGTGGGAGG | -0.19 kcal/mol
GTGCACACGTGTAGTT | 0.1 kcal/mol
TCTTTCACGTGCGATT | 0.52 kcal/mol
TAACTCACGTGGTTGA | 0.09 kcal/mol
GAAGGCACGTGTCGAG | 0.08 kcal/mol
GTGATCACGTGATTTT | 0.33 kcal/mol
TTCTGCACGTGGTAAT | -0.02 kcal/mol
TTCTTCACGTGTGCGT | 0.29 kcal/mol
GAAGTCACGTGAGTAG | 0.36 kcal/mol
CGGCACACGTGCGGGG | -0.02 kcal/mol
TAGTGCACGTGACGGC | 0.17 kcal/mol
ACGGTCACGTGGTGAT | 0.03 kcal/mol
GGGTTCACGTGGTTTC | 0.24 kcal/mol
AGTTGCACGTGGTCCT | -0.03 kcal/mol
TATGACACGTGTATGA | 0.06 kcal/mol
TATTGCACGTGGGGTT | -0.12 kcal/mol
AAGGTCACGTGGTGAC | 0.05 kcal/mol
CGGGGCACGTGATAGG | -0.06 kcal/mol

Sequence | relative binding free energy
TAGTTCACGTGCGCGG | 0.17 kcal/mol
GTTATCACGTGGGTGT | 0.1 kcal/mol
TGTTTCACGTGATAAT | 0.27 kcal/mol
AAGCTCACGTGTGAGG | 0.28 kcal/mol
TAGAGCACGTGGTTTA | 0.03 kcal/mol
TATTACACGTGGCTTG | 0.05 kcal/mol
TGGTTCACGTGTCCTG | 0.29 kcal/mol
TGTGGCACGTGTCTAT | -0.13 kcal/mol
ATATCCACGTGTGTTG | 0.08 kcal/mol
ACGAGCACGTGTGGGT | -0.06 kcal/mol
GAGGGCACGTGTATAT | 0.04 kcal/mol
TGTCGCACGTGTAATG | -0.1 kcal/mol
CTTTCCACGTGAGGGT | 0.16 kcal/mol
AGGTCCACGTGTTTAT | 0 kcal/mol
GGTTTCACGTGACTAT | 0.44 kcal/mol
GTTTTCACGTGTCGAA | 0.25 kcal/mol
GATATCACGTGATTGT | 0.26 kcal/mol
TTTTGCACGTGTGATT | 0.15 kcal/mol
TCCTTCACGTGTTGGG | 0.23 kcal/mol
GTCATCACGTGAATGG | 0.28 kcal/mol
GTGTGCACGTGATCGC | 0.09 kcal/mol
ACGGGCACGTGATGTT | 0.06 kcal/mol
TGAATCACGTGAAAGT | 0.33 kcal/mol

Sequence | relative binding free energy
TGGATCACGTGGATCG | 0.24 kcal/mol
ATAGACACGTGGGTGA | -0.08 kcal/mol
GTGTCCACGTGAGAGG | 0.24 kcal/mol
TATTGCACGTGGCTGT | -0.11 kcal/mol
TGATTCACGTGGAGTT | 0.3 kcal/mol
TTGTCCACGTGAAGCG | 0.43 kcal/mol
GGAGGCACGTGTGTTC | -0.17 kcal/mol
GAGTACACGTGAGTTA | 0.25 kcal/mol
ATGGCCACGTGAAGTG | 0.23 kcal/mol
TAGAGCACGTGGCGTG | -0.1 kcal/mol
GGGGTCACGTGCTATG | 0.05 kcal/mol
ACTTTCACGTGGTGTT | 0.26 kcal/mol
TGGGTCACGTGACGGC | 0.21 kcal/mol
TTATTCACGTGTGCAG | 0.3 kcal/mol
AATGTCACGTGTAGAA | 0.09 kcal/mol
TAGTGCACGTGTACAG | -0.01 kcal/mol
TGGTCCACGTGAATGT | 0.14 kcal/mol
CGTAGCACGTGGGGGG | -0.31 kcal/mol
GATAGCACGTGCTGTG | -0.02 kcal/mol
TGGTTCACGTGTCTGG | 0.26 kcal/mol
TGGTGCACGTGTCTGG | -0.05 kcal/mol
TCGTTCACGTGAATTG | 0.33 kcal/mol
AGAGTCACGTGGTAAG | 0.1 kcal/mol

Sequence | relative binding free energy
GGGTTCACGTGTGAGG | 0.38 kcal/mol
TTTGTCACGTGGGCAG | 0.08 kcal/mol
GGTGTCACGTGGTGTG | 0.14 kcal/mol
TGTTCCACGTGGAATG | 0.13 kcal/mol
AAGTGCACGTGGTTAT | -0.04 kcal/mol
CGTGGCACGTGAGGTA | 0.12 kcal/mol
TGGGTCACGTGTAGTT | 0.14 kcal/mol
AATTTCACGTGTATAA | 0.2 kcal/mol
TTCTGCACGTGATCGT | 0.03 kcal/mol
TTGCGCACGTGGGGGT | -0.22 kcal/mol
GGATTCACGTGCTGGT | 0.25 kcal/mol
GTGCCCACGTGGAGGG | -0.14 kcal/mol
GGATTCACGTGGTCTT | 0.24 kcal/mol
ACGTTCACGTGATGTG | 0.26 kcal/mol
TGTTACACGTGTCTGA | 0.3 kcal/mol
TTGATCACGTGATCAT | 0.22 kcal/mol
GGGGGCACGTGCTATA | -0.07 kcal/mol
AAGGTCACGTGGTTTT | 0.11 kcal/mol
TGTGGCACGTGTTATG | -0.11 kcal/mol
TAGTACACGTGGTGGT | 0.05 kcal/mol
TGGTACACGTGAGGTT | 0.4 kcal/mol
TATATCACGTGCAAGG | 0.28 kcal/mol
CAAGTCACGTGGATGT | 0.09 kcal/mol

Sequence | relative binding free energy
GGGGCCACGTGTAGCT | 0.03 kcal/mol
AATTTCACGTGTTTCG | 0.17 kcal/mol
TATATCACGTGAGCGG | 0.42 kcal/mol
TGCTGCACGTGGGCGA | -0.21 kcal/mol
GTAGCCACGTGCTGGG | -0.03 kcal/mol
GGAGGCACGTGATGAT | 0.03 kcal/mol
CATATCACGTGGTTGG | -0.04 kcal/mol
ATTGTCACGTGAGTCG | 0.26 kcal/mol
TTGAGCACGTGGTTAG | -0.18 kcal/mol
TGATTCACGTGTTTCG | 0.17 kcal/mol
GTTGGCACGTGGTATC | -0.13 kcal/mol
AGTTGCACGTGATGGG | 0.21 kcal/mol
GAGTTCACGTGTAAGA | 0.43 kcal/mol
AGTAACACGTGGAGGC | 0.11 kcal/mol
TGTGGCACGTGAATTG | 0.03 kcal/mol
AATTGCACGTGTAGGT | 0.01 kcal/mol
GGGATCACGTGGGGCA | 0 kcal/mol
GATGGCACGTGAAGCG | 0.26 kcal/mol
CAAAGCACGTGTGTGT | -0.02 kcal/mol
TGAGTCACGTGGGTTG | 0.02 kcal/mol
GGGCACACGTGTATGT | 0.11 kcal/mol
GCGGGCACGTGTGGCG | -0.12 kcal/mol
TAGTGCACGTGATGCT | 0.08 kcal/mol
